From paper PMC4336329 (PLoS ONE, 2015)
About 2,200 (0.71%) of roughly 310,000 compounds showed an effect of 50% or more. Effects have a minus sign here. This is one part of the list.

These molecules were tested against human ether-à-go-go-related gene (hERG) potassium channel (human, UniProt Q12809) (assay: primary screen, population patch clamp on CHO cells stably expressing hERG).
Chain of human ether-à-go-go-related gene (hERG) potassium channel (Q12809 whole entry, looked up): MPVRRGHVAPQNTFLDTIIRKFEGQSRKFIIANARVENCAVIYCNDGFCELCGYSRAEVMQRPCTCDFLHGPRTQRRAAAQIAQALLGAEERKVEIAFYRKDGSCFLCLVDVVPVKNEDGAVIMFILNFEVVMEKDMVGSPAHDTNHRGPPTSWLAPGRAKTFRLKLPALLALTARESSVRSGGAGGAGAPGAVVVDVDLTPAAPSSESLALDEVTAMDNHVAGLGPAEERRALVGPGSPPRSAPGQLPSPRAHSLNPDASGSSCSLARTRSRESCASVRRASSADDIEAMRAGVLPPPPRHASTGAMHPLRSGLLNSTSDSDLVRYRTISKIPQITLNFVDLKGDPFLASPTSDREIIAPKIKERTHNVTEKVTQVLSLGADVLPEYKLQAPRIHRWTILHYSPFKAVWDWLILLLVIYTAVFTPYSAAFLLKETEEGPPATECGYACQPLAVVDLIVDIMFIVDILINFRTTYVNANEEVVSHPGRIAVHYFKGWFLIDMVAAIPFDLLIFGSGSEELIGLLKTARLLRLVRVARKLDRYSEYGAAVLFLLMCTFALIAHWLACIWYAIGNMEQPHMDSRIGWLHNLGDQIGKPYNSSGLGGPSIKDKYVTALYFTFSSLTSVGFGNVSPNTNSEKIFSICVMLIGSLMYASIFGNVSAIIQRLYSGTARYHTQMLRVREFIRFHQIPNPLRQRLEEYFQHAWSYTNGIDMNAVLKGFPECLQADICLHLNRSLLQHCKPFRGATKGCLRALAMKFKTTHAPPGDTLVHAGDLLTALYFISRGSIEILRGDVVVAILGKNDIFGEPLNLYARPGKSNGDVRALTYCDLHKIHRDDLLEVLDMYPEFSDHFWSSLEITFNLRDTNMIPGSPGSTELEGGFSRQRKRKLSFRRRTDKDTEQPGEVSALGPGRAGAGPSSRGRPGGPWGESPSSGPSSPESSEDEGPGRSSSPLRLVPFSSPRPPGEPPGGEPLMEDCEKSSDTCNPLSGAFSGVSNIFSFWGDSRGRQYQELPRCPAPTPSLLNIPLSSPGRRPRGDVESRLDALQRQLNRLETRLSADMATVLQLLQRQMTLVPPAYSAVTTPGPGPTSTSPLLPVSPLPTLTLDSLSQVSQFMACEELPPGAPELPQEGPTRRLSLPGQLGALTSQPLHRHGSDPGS

Row | Structure (SMILES) | hERG current change (%, negative = inhibition) at 1uM
1 | Cc1cccc(N/C(N)=N/c2nc3c(c(=O)[nH]2)CCCC3)c1 | -0.251%
2 | CCOC(=O)c1ccc(NC(=O)NS(=O)(=O)c2ccc(C)cc2)cc1 | 10.4%
3 | OC(c1ccncc1)(c1ccc(F)cc1)c1ccc(F)cc1 | 9.19%
4 | COc1ccccc1CNC(=S)Nc1ccc(S(N)(=O)=O)cc1 | 14.6%
5 | COc1cccc(-n2c(SCC(=O)N3CCCCC3)nc3c([nH]c4ccccc43)c2=O)c1 | 12.9%
6 | COC(=O)c1cc(-c2ccccc2)n(CC(=O)O)c1C | 5.29%
7 | CCOC(=O)c1ccc(NC(=S)NC(=O)COc2ccccc2)cc1 | 10.1%
8 | Cc1nc(C)c(-c2ccn(S(=O)(=O)c3ccc(Cl)cc3)n2)o1 | 0.225%
9 | COC/C=C/C1=CC2=CC(=O)C(C)(OC(=O)c3ccco3)C(=O)C2=CO1 (stereo not shown) | 16.9%
10 | O=C(NCCc1nc2ccccc2[nH]1)/C(=C/c1ccco1)NC(=O)c1ccc(Br)o1 | -9.29%
11 | CCOc1ccccc1N1CCN(C/C=C/c2ccc(N(C)C)cc2)CC1 | -20.3%
12 | Cn1c(N)c(C(=O)COC(=O)c2cc(S(=O)(=O)N3CCCCC3)ccc2Cl)c(=O)n(C)c1=O | 3.34%
13 | CC(C)(C)c1nnc2sc(SCC(=O)c3ccc4c(c3)OCCO4)nn2c1=O | 8.46%
14 | CN(CCNC(=O)CN1C(=O)CSc2ccc(S(=O)(=O)N3CCCC3)cc21)Cc1ccccc1 | 5.11%
15 | CC(=O)Nc1ccccc1C(=O)C(=O)O | 6.28%
16 | CC(NC(=O)C(=O)N1CCCCC1)C(c1cccs1)N1CCN(C)CC1 (stereo not shown) | 16.4%
17 | COCCCn1c(SCC(=O)N(C)C)nnc1-c1ccccc1 | 16.7%
18 | NS(=O)(=O)c1cc(C(=O)OCC(=O)c2ccccc2)c(Cl)cc1Cl | 20.4%
19 | CC(C)Cn1c(N)c(C(=O)COC(=O)C2Cc3ccccc3CN2S(C)(=O)=O)c(=O)n(C)c1=O (stereo not shown) | -8.91%
20 | COc1ccc(CNc2nc3ccccc3n2CCN2CCCCC2)c(OC)c1 | -28.3%
21 | O=C(c1ccco1)N1CCN(c2ccnc3cc(Cl)ccc23)CC1 | -63.6%
22 | O=C(c1cccc(S(=O)(=O)N2CCc3ccccc3C2)c1)N1CCN(c2ccc(O)cc2)CC1 | 10.2%

Row | Structure (SMILES) | hERG current change (%, negative = inhibition) at 1uM
23 | Cc1ccc2cc3c(N)c(C(=O)N4CCOCC4)sc3nc2c1 | 7.38%
24 | CCc1ccc(S(=O)(=O)NC(=S)Nc2ccccc2)cc1 | 11.4%
25 | CCOC(=O)CN(Cc1sccc1C)C(=O)Nc1ccc(OC)cc1OC | 13.9%
26 | Cc1[nH]c2ccccc2c1-c1csc(NC(=O)CSCC(=O)O)n1 | 2.01%
27 | O=Cc1ccc(-c2ccccc2C(=O)O)o1 | 13%
28 | O=C(NCC(=O)N1CCCCCCC1)c1ccc(Cl)cc1 | 6.55%
29 | CCOC(=O)[C@H]1[C@H]2COc3ccc(OC)cc3[C@@H]2N2C(=O)c3ccc(Cl)cc3NC(=O)[C@@]12C | -1.11%
30 | O=C(Oc1cccc(/C=N/NC(=O)c2ccccn2)c1)c1ccc([N+](=O)[O-])cc1 | 17.5%
31 | Cc1cc(=O)[nH]c(N/N=C/c2ccc([N+](=O)[O-])cc2)n1 | 4.34%
32 | CCCN1C(=O)C(O)(C/C(C)=N/O)c2ccccc21 (stereo not shown) | 2.73%
33 | O=C(COc1ccccc1C(=O)NCc1ccccc1)Nc1ccccc1 | 9.27%
34 | COc1ccccc1NC(=O)CCS(=O)(=O)c1ccc2c(c1)NC(=O)C(C)S2 (stereo not shown) | 10%
35 | CCC(Cc1ccccc1)NC(=O)C1=C(C)C(=O)OC12CCC(C)CC2 (stereo not shown) | 5.82%
36 | O=C1Cc2ccccc2C(c2ccc(Cl)cc2Cl)N1 (stereo not shown) | -2.05%
37 | CS(=O)(=O)N(CC(=O)NCc1ccco1)c1ccc(OCc2ccccc2)cc1 | 13.9%
38 | CC(=O)NCC(=O)OCC(=O)Nc1nc(-c2ccccc2)cs1 | 13.7%
39 | CC(C)=CC(=O)OCC(=O)Nc1ccc(Cl)cn1 | 20.8%
40 | COc1cc2c(cc1OC)C(C(=O)N1CCC3(CC1)OCCO3)C(c1ccccc1F)N(C)C2=O (stereo not shown) | 2.64%
41 | O=c1[nH]oc(O)c1-c1ncc(C(F)(F)F)cc1Cl | 8.75%
42 | O=C(NC1CCCCC1)C(c1ccncc1)N(Cc1ccc(F)cc1)C(=O)c1ccccn1 (stereo not shown) | 8.75%
43 | O=c1cnnc(Nc2ccc(Cl)c(C(F)(F)F)c2)[nH]1 | 12.2%
